Seven compounds from PubChem BioAssay (NCATS) can be followed below.

SMILES strings stand for the structures. The list shows a part of the results. These are further read-outs of the screen, such as a control signal, another cell line or another target. No call is given for them. The list favours compounds with an active or inconclusive main result. The note in brackets gives the kind of curve behind each potency; many fits are weak.

The nature of this assay: qHTS Assay for Lipid Storage Modulators (AID 1519). The settings on record: Drosophila S3 cells, BODIPY lipid droplet/cell ratio, laser cytometry, cells loaded with oleic acid. A digest of the protocol: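 Cells seeded at 5,000 per well were treated with compounds over a concentration series and loaded with oleic acid (400 uM, as added). Lipid droplet fluorescence (488 nm excitation, 500-530 nm channel) was read by laser-scanning cytometry and normalized to 20 uM Triacsin C.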
In general terms: qHTS replaces the single test concentration by a dilution series.

[1] abbreviates: measured here: cell count channel max response.
Where [2] appears, read: measured here: cell number channel AC50.
Setting [3] is: measured here: lipid (BODIPY) channel AC50.
[4] abbreviates: measured here: lipid channel max response.
Tags describe the fitted curve by direction and shape.

Usually AC50 stands for the midpoint of the concentration-response curve, whichever way the signal moves. As for `COC1=CC(=O)CC(C)C12Oc1c(Cl)c(OC)cc(OC)c1C2=O` (stereo not drawn), the max response reads like this: under setting [1], 88.5%; under setting [4], 115%. Moreover, the AC50 is 14100 nM [rising, partial curve] under setting [2] and 14100 nM [rising, partial curve] under setting [3].

For the compound `Cc1cnc(CNc2cc(-c3ccc4c(c3)OCO4)ncn2)cn1`, the max response worked out at 36.2% under setting [1] and 40.2% under setting [4]. Further, the AC50 under setting [2] is 1000 nM [rising, full curve] and the AC50 under setting [3] is 501 nM [rising, full curve, poor fit].

As to `Clc1ccccc1-c1ccc2ncnc(NCc3cccnc3)c2c1`, the max response is, setting by setting: under setting [1], 10.9%; under setting [4], 10.4%. Besides, the AC50 was 2820 nM [rising, partial curve, poor fit] under setting [2] and 2820 nM [rising, partial curve, poor fit] under setting [3].

On to `CCNc1ncc2nc(-c3cc(F)cc(F)c3)c(=O)n(Cc3ccc(F)cc3)c2n1`, for which the max response is, setting by setting: under setting [1], 31.7%; under setting [4], 43%. Also, the AC50 is, setting by setting: under setting [2], 112 nM [rising, full curve, poor fit]; under setting [3], 447 nM [rising, full curve, poor fit].

Consider `COCCn1c(=O)c(-c2ccc(F)cc2)nc2cncnc21`, for which the max response under setting [1] turned out to be 35% and the max response under setting [4] was 49.3%. Besides, the AC50 was 2510 nM [rising, full curve] under setting [2] and 1120 nM [rising, full curve] under setting [3].

Take `CN1CCN(c2nc(-c3ccccc3C(F)(F)F)nc3ccccc23)CC1`: the max response runs as follows: under setting [1], 21.9%; under setting [4], 25.4%. Besides, the AC50 by setting is: under setting [2], 3980 nM [rising, full curve, poor fit]; under setting [3], 5010 nM [rising, single point].

As for `CC(=O)N1CCC2(CC1)CCN(C(=O)Nc1cccc(C#N)c1)CC2`, the max response by setting is: under setting [1], 20%; under setting [4], 24.5%. The AC50 is 5.62 nM [rising, full curve, poor fit] under setting [2] and 5.62 nM [rising, full curve, poor fit] under setting [3].
